# The list shows a part of the results.
# Key:
# Assay in all cases: glycan array binding signal (z-score within array); higher = stronger binding
# Settings in all cases: glycan notation: IUPAC condensed, linker removed
# [1] = molecular target: Gal(b1-4)GlcNAc(b1-3)Gal(b1-4)GlcNAc(b1-3)Gal(b1-4)GlcNAc
# Method in brief: (§1)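 Glycan array binding is given as a within-array Z-score, which can be read as non-binding when negative. The arrays, 3228 of them, came from the Consortium for Functional Glycomics database and were retained only where the protein sequence was available. Z-scores were averaged across arrays of the same protein sequence at different concentrations or buffers and across linkers.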
# [2] = molecular target: Gal(b1-4)GlcNAc(b1-3)Gal(b1-4)GlcNAc(b1-3)Gal(b1-4)GlcNAc(b1-2)Man(a1-3)[Gal(b1-4)GlcNAc(b1-3)Gal(b1-4)GlcNAc(b1-3)Gal(b1-4)GlcNAc(b1-2)Man(a1-6)]Man(b1-4)GlcNAc(b1-4)GlcNAc
# Method in brief: as §1
# [3] = molecular target: Gal(b1-4)GlcNAc(b1-3)Gal(b1-4)GlcNAc(b1-3)Gal(b1-4)GlcNAc(b1-2)Man(a1-3)[Gal(b1-4)GlcNAc(b1-3)Gal(b1-4)GlcNAc(b1-3)Gal(b1-4)GlcNAc(b1-2)Man(a1-6)]Man(b1-4)GlcNAc(b1-4)[Fuc(a1-6)]GlcNAc
# Method in brief: as §1
# [4] = molecular target: Gal(b1-4)GlcNAc(b1-3)Gal(b1-4)GlcNAc(b1-3)Gal(b1-4)GlcNAc(b1-2)[Gal(b1-4)GlcNAc(b1-3)Gal(b1-4)GlcNAc(b1-3)Gal(b1-4)GlcNAc(b1-6)]Man(a1-6)[Gal(b1-4)GlcNAc(b1-3)Gal(b1-4)GlcNAc(b1-3)Gal(b1-4)GlcNAc(b1-2)Man(a1-3)]Man(b1-4)GlcNAc(b1-4)[Fuc(a1-6)]GlcNAc
# Method in brief: as §1
# [5] = molecular target: Gal(b1-4)GlcNAc(b1-3)Gal(b1-4)GlcNAc(b1-3)Gal(b1-4)GlcNAc(b1-3)Gal(b1-4)GlcNAc(b1-2)Man(a1-3)[Gal(b1-4)GlcNAc(b1-3)Gal(b1-4)GlcNAc(b1-3)Gal(b1-4)GlcNAc(b1-3)Gal(b1-4)GlcNAc(b1-2)Man(a1-6)]Man(b1-4)GlcNAc(b1-4)GlcNAc
# Method in brief: as §1
# [6] = molecular target: Gal(b1-4)GlcNAc(b1-3)Gal(b1-4)GlcNAc(b1-3)Gal(b1-4)GlcNAc(b1-3)Gal(b1-4)GlcNAc(b1-2)Man(a1-3)[Gal(b1-4)GlcNAc(b1-3)Gal(b1-4)GlcNAc(b1-3)Gal(b1-4)GlcNAc(b1-3)Gal(b1-4)GlcNAc(b1-2)Man(a1-6)]Man(b1-4)GlcNAc(b1-4)[Fuc(a1-6)]GlcNAc
# Method in brief: as §1
# [7] = molecular target: Gal(b1-4)GlcNAc(b1-3)Gal(b1-4)GlcNAc(b1-3)Gal(b1-4)GlcNAc(b1-3)Gal(b1-4)GlcNAc(b1-2)[Gal(b1-4)GlcNAc(b1-3)Gal(b1-4)GlcNAc(b1-3)Gal(b1-4)GlcNAc(b1-3)Gal(b1-4)GlcNAc(b1-6)]Man(a1-6)[Gal(b1-4)GlcNAc(b1-3)Gal(b1-4)GlcNAc(b1-3)Gal(b1-4)GlcNAc(b1-3)Gal(b1-4)GlcNAc(b1-2)Man(a1-3)]Man(b1-4)GlcNAc(b1-4)[Fuc(a1-6)]GlcNAc
# Method in brief: as §1
# [8] = molecular target: Gal(b1-4)GlcNAc(b1-3)Gal(b1-4)GlcNAc(b1-3)Gal(b1-4)GlcNAc(b1-3)Gal(b1-4)GlcNAc(b1-3)Gal(b1-4)GlcNAc(b1-2)Man(a1-3)[Gal(b1-4)GlcNAc(b1-3)Gal(b1-4)GlcNAc(b1-3)Gal(b1-4)GlcNAc(b1-3)Gal(b1-4)GlcNAc(b1-3)Gal(b1-4)GlcNAc(b1-2)Man(a1-6)]Man(b1-4)GlcNAc(b1-4)GlcNAc
# Method in brief: as §1
# [9] = molecular target: Gal(b1-4)GlcNAc(b1-3)Gal(b1-4)GlcNAc(b1-3)Gal(b1-4)GlcNAc(b1-3)Gal(b1-4)GlcNAc(b1-3)Gal(b1-4)GlcNAc(b1-2)Man(a1-3)[Gal(b1-4)GlcNAc(b1-3)Gal(b1-4)GlcNAc(b1-3)Gal(b1-4)GlcNAc(b1-3)Gal(b1-4)GlcNAc(b1-3)Gal(b1-4)GlcNAc(b1-2)Man(a1-6)]Man(b1-4)GlcNAc(b1-4)[Fuc(a1-6)]GlcNAc
# Method in brief: as §1
# [10] = molecular target: Gal(b1-4)GlcNAc(b1-3)Gal(b1-4)GlcNAc(b1-3)Gal(b1-4)GlcNAc(b1-3)Gal(b1-4)GlcNAc(b1-3)Gal(b1-4)GlcNAc(b1-2)[Gal(b1-4)GlcNAc(b1-3)Gal(b1-4)GlcNAc(b1-3)Gal(b1-4)GlcNAc(b1-3)Gal(b1-4)GlcNAc(b1-3)Gal(b1-4)GlcNAc(b1-6)]Man(a1-6)[Gal(b1-4)GlcNAc(b1-3)Gal(b1-4)GlcNAc(b1-3)Gal(b1-4)GlcNAc(b1-3)Gal(b1-4)GlcNAc(b1-3)Gal(b1-4)GlcNAc(b1-2)Man(a1-3)]Man(b1-4)GlcNAc(b1-4)[Fuc(a1-6)]GlcNAc
# Method in brief: as §1
# [11] = molecular target: Gal(b1-4)GlcNAc(b1-3)Gal(b1-4)GlcNAc(b1-3)Gal(b1-4)GlcNAc(b1-3)Gal(b1-4)GlcNAc(b1-3)Gal(b1-4)GlcNAc(b1-3)Gal(b1-4)GlcNAc(b1-2)Man(a1-3)[Gal(b1-4)GlcNAc(b1-3)Gal(b1-4)GlcNAc(b1-3)Gal(b1-4)GlcNAc(b1-3)Gal(b1-4)GlcNAc(b1-3)Gal(b1-4)GlcNAc(b1-3)Gal(b1-4)GlcNAc(b1-2)Man(a1-6)]Man(b1-4)GlcNAc(b1-4)GlcNAc
# Method in brief: as §1
# [12] = molecular target: Gal(b1-4)GlcNAc(b1-3)Gal(b1-4)GlcNAc(b1-3)GalNAc
# Method in brief: as §1
# [13] = molecular target: Gal(b1-4)GlcNAc(b1-3)Gal(b1-4)GlcNAc(b1-3)[Gal(b1-4)GlcNAc(b1-3)Gal(b1-4)GlcNAc(b1-6)]GalNAc
# Method in brief: as §1
# [14] = molecular target: Gal(b1-4)GlcNAc(b1-3)Gal(b1-4)GlcNAc(b1-6)[Gal(b1-3)]GalNAc
# Method in brief: as §1
# [15] = molecular target: Gal(b1-4)GlcNAc(b1-3)Gal(b1-4)[Fuc(a1-3)]GlcNAc(b1-3)Gal(b1-4)[Fuc(a1-3)]GlcNAc
# Method in brief: as §1
# [16] = molecular target: Gal(b1-4)GlcNAc(b1-3)GalNAc
# Method in brief: as §1
# [17] = molecular target: Gal(b1-4)GlcNAc(b1-3)[Fuc(a1-3)GlcNAc(b1-6)]Gal(b1-4)Glc
# Method in brief: as §1
# [18] = molecular target: Gal(b1-4)GlcNAc(b1-3)[Gal(b1-4)GlcNAc(b1-6)]Gal(b1-4)GlcNAc
# Method in brief: as §1
# [19] = molecular target: Gal(b1-4)GlcNAc(b1-3)[GlcNAc(b1-6)]Gal(b1-4)GlcNAc
# Method in brief: as §1
binder,measurement,setting,value
PkBDPgamma (Plasmodium knowlesi) (protein) SAINQIFLQNNVMDKCNDKRKRGERDWDCPTEKDVCIPDRRYQLCMMEITNLVDTDTHFHSDIIFRKSYSRRRLIYDVGGRGDLLLKKYNNVYSEDLCKDIKWSLQDFGDIIMGTDMEGIGYSLVVQNNLRSIFGTGTSAELDRKKWWNDHKKDIWKAMILSVKEKNRYSAWNCKEDVQIKVEPQIYRWIREWGRDYMSEFREQRRKLNEKCEDKLYYSTMLICTLPPCNNACKSYDEWITGKKKQWDVLSTKFSSVKKAQKIETENIARAYDILKQELNGFNEVTFENEINKRDKLYNYFCVCIVQEARKNTQENVKNVGSGVESKAPSSNPINEAVKSSSGEGKVQEDSAHRSVNEGEGKSSTNEADPGSQPGAAASGGGSGGGTGGGVDLAPQMLRELQETNAALQDVRELLRQQVKEITFLKNTVMECDACGGPLDRNLPPLAPLGPTGGWSHPQFEK,glycan array binding signal (z-score),[1],-0.217
same,glycan array binding signal (z-score),[2],0.866
same,glycan array binding signal (z-score),[3],0.01
same,glycan array binding signal (z-score),[4],0.679
same,glycan array binding signal (z-score),[5],0.427
same,glycan array binding signal (z-score),[6],0.564
same,glycan array binding signal (z-score),[7],0.169
same,glycan array binding signal (z-score),[8],1.25
same,glycan array binding signal (z-score),[9],-0.118
same,glycan array binding signal (z-score),[10],0.939
same,glycan array binding signal (z-score),[11],0.753
same,glycan array binding signal (z-score),[12],0.087
same,glycan array binding signal (z-score),[13],0.707
same,glycan array binding signal (z-score),[14],-0.24
same,glycan array binding signal (z-score),[15],-0.167
same,glycan array binding signal (z-score),[16],-0.092
same,glycan array binding signal (z-score),[17],-0.221
same,glycan array binding signal (z-score),[18],0.122
same,glycan array binding signal (z-score),[19],0.107
